Source: the supplement of paper PMC3334620
Over roughly 33,000 sequences, “E-score (-0.5 to 0.5)” has its median near -0.012; the highest 2% begin near 0.27. Some of the results follow.

Target: T1, Vhr1 (UniProt P40522)
T1 sequence: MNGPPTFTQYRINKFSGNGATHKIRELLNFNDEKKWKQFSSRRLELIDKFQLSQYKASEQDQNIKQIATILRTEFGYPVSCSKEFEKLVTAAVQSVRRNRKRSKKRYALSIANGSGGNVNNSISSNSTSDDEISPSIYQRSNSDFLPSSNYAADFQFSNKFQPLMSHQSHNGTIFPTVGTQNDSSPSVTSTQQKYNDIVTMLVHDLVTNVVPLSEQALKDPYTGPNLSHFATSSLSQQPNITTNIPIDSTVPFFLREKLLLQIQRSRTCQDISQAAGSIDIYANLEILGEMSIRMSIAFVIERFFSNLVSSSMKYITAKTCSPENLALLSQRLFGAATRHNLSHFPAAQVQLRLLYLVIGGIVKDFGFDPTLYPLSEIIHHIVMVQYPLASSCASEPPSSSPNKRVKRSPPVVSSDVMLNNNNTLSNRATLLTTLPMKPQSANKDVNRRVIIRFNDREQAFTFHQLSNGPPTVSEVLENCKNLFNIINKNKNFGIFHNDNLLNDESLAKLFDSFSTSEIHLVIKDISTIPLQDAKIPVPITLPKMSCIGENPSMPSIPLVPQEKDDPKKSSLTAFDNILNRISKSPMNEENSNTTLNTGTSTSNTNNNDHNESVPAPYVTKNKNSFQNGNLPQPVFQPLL
Assay: PBM E-score (8-mer binding enrichment) (E-score (-0.5 to 0.5)); higher = stronger / more preferred TF binding; most listed sequences are background and not binding sites
Settings: protein concentration: 200 nM; construct: GST-full length
Method in brief: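 Yeast transcription factors, full-length or as DNA-binding domains, were expressed with a GST tag using PURExpress in vitro transcription/translation. At about 100-200 nM they were applied to universal all-10-mer Agilent arrays, double-stranded by primer extension on fresh or once-stripped slides. Fluorescent anti-GST detected bound protein, and masliner normalised the scans. E-scores for ungapped eight-base words, pooled with reverse complements, came from the Universal PBM Analysis Suite.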

In order of falling “PBM E-score” value:
1. AGTCACCA  0.426
2. AATCATGT  0.389
3. ACATGTGG  0.278
4. CATCAGAC  0.246
5. GAGCTGAC  0.235
6. ACTATAAT  0.227
7. ACCCATGG  0.211
8. ATTACTGC  0.206
9. CGGAAGAC  0.184
10. AGACTCTG  0.178
11. CACTATGA  0.173
12. TCATACGA  0.171
13. CGATATTA  0.171
14. ATATTTGA  0.147
15. CCAAGCAA  0.136
16. CACTATTA  0.13
17. ATCCCGAT  0.121
18. GATTCTGC  0.113
19. ACGCCCAT  0.103
20. ACTTCGGC  0.0903
21. AGTTAGAG  0.0903
22. AAGAGGCA  0.0678
23. AGAACAAG  0.0641
24. GCGATCGA  0.0608
25. ACCCTTCC  0.0544
26. CGCGGCCC  0.0527
27. AGGTGACA  0.0488
28. AGGTCTGA  0.0434
29. ACATAACA  0.0352
30. AGGAAATC  0.0336
31. CGTTAGGA  0.0291
32. GTTGTATA  0.0288
33. CCAACTAA  0.0222
34. GTTAGTGA  0.0216
35. GCTAATTA  0.0163
36. ACGTTGCG  0.00783
37. GACAGCGC  0.00758
38. AACGCCGA  0.00429
39. GGACAATA  -0.00135
40. CTGCGACC  -0.00159
41. CCTTGCCG  -0.00503
42. CCACTTCA  -0.0055
43. GACGGAAC  -0.0122
44. AATGGCAG  -0.0191
45. CCCAACAC  -0.0212
46. CCACAAAA  -0.0265
47. GCAGAAAA  -0.0271
48. ACGTGTGC  -0.0314
49. CCAGAATA  -0.035
50. AAGTTGGA  -0.0396
51. AGCGGAAC  -0.0399
52. AATGATCC  -0.0402
53. ACTCGAGG  -0.0462
54. CACTTAAG  -0.0463
55. CACGTGCC  -0.0472
56. AGCAGTGG  -0.0474
57. ATGGTGCG  -0.0561
58. CCTGTAAC  -0.0611
59. AGCTCCCA  -0.0653
60. ATAGCGGA  -0.0723
61. GCCATAGC  -0.0742
62. TTATCCAA  -0.0788
63. CTAGCTTA  -0.0946
64. AAAAACTC  -0.106
65. ACCGTGCA  -0.115
66. CACGGTCC  -0.118
67. GTAGAGAA  -0.118
68. GTGGTAAA  -0.123
69. ATTGAAAA  -0.126
70. AGAAAAAT  -0.139
71. ATGCCTTA  -0.145
72. AACATCTA  -0.152
73. CTTTAGCA  -0.158
74. CGGTTTAA  -0.169
75. GCCTTAAA  -0.174
76. CTGTTTCC  -0.185
77. AAAAATGT  -0.194
78. AAAGTCGG  -0.203
79. CTTTCATC  -0.205
80. GGTCCTCA  -0.209
81. CCATGAGG  -0.21
82. CAGATTCA  -0.232
83. ATCAAACG  -0.24
84. AGAATTGA  -0.244
85. AAGTAGCT  -0.251
86. ACGGCCCT  -0.287
